This passage reports binding signal results from paper PMC10668032.

Some of the results follow. At the low end of the ranking the order means little.

For the assay, the target named is SIX1 homeodomain (reference allele) (UniProt Q15475). Nature of the assay: universal protein binding microarray. To be noted: Universal all-10-mer PBM (8x60K, AMADID 030236), 300 nM GST-tagged protein, Alexa Fluor 488 anti-GST; buffer, salt, pH and temperature not stated; high values mean tight binding; most listed sequences are background and not binding sites; double strand, one strand shown.
For ACCCAGTA, the binding signal is 0.198 E-score.
Consider GCGACTGA, for which the binding signal is -0.00831 E-score.
With CGGGATAG, the binding signal is 0.268 E-score.
Take ACAGCACT: the binding signal was -0.273 E-score.
As for CCTGCATC, the binding signal stood at 0.125 E-score.
With CAGCGTGA, the binding signal was -0.00634 E-score.
Under CATAACTA stands 0.00415 E-score.
Take GCCCATCC: the binding signal came to 0.14 E-score.
Under CCGGCCCG stands -0.00181 E-score; under TAAGCACA, -0.0726 E-score.
The figure for CCTCTGAA is -0.0853 E-score.
The figure for ACTTTATA is 0.0208 E-score.
On to AAAAGTTC, for which the binding signal is -0.298 E-score.
For the sequence GCGGACGA, the binding signal was found to be 0.073 E-score.
The figure for AACTAATT is -0.121 E-score.
Under GATATGTA stands 0.383 E-score; under CATGACAC, 0.35 E-score.
The figure for CTATGTTC is -0.0618 E-score; for GTACCATA it is 0.0944 E-score.
Turning to ACTCTCCC, the binding signal is -0.0551 E-score.
The figure for GACGGAAA is -0.18 E-score; for CTCGGCTC it is -0.18 E-score.
For the sequence TCTTTCCA, the binding signal was -0.203 E-score.
As for CTCCACCA, the binding signal was -0.202 E-score.
With AGCCGCAA, the binding signal is -0.101 E-score.
Under GAACACGC stands -0.0654 E-score; under AATCACCT, -0.0396 E-score; under AGTCGTTG, -0.187 E-score.
As to CAAGCGCA, the binding signal came to 0.0156 E-score.
Under GGGAGTAA stands -0.0228 E-score; under TCCATGGA, 0.083 E-score; under CTAACGGC, -0.0611 E-score.
Under ATCAGAGG stands 0.0323 E-score; under TCTGGACA, -0.0481 E-score; under ATTATTGG, -0.0947 E-score.
Under AAGACCTT stands -0.178 E-score; under ATCGTCGC, 0.134 E-score.
For CTGGGATC, the binding signal was found to be 0.297 E-score.
The figure for CACAGGTG is 0.105 E-score.
In the case of GCGCTTAA, the binding signal was -0.123 E-score.
Under TAGAATCA stands 0.0486 E-score; under CAAGACAA, -0.162 E-score; under GTTCACCA, -0.158 E-score.
Under TAGGCATA stands 0.117 E-score; under GCAGGGGA, -0.0603 E-score.
In the case of ACTCCAAG, the binding signal is -0.0501 E-score.
Under TCACGCCA stands 0.0726 E-score; under CCACTGGC, -0.12 E-score.
Under GAGAGGGA stands 0.0291 E-score; under GCTCCCAA, -0.272 E-score; under AATGTTCA, -0.295 E-score.
The figure for AGTTAAGG is -0.107 E-score.
As to CAGTCTCC, the binding signal is -0.0628 E-score.
For the sequence AATGACTG, the binding signal was -0.2 E-score.
The figure for AATATGAT is 0.309 E-score; for AAATGTCT it is -0.278 E-score; for GATCTAGC it is 0.215 E-score.
For the sequence CCCAGAGA, the binding signal was found to be 0.0477 E-score.
As to GCCCAAGA, the binding signal was -0.128 E-score.
CGCTAACC: the binding signal is -0.143 E-score.
The figure for AGACCATG is 0.0671 E-score.
On to CTGAATTC, for which the binding signal was -0.128 E-score.
Under CATCATCG stands 0.149 E-score; under ACTACTCC, 0.0619 E-score.
The figure for CAGTTCCC is -0.195 E-score; for CAAGCCAA it is -0.173 E-score.
As for GATAACGA, the binding signal turned out to be 0.029 E-score.
As for GAGATGCC, the binding signal was 0.0428 E-score.
The figure for CAGAGGCA is -0.238 E-score.
With AATTCCCC, the binding signal is -0.144 E-score.
On to AATGAAGA, for which the binding signal came to 0.0239 E-score.
As for GGAAAAAC, the binding signal was -0.251 E-score.
Take CTGCTTAA: the binding signal is -0.275 E-score.
Under GTCAAGAC stands -0.136 E-score; under CAGCCTAA, -0.118 E-score.
The figure for GTTTATTA is -0.00497 E-score.
Under AAGATCTG stands 0.12 E-score; under AGAGTAGC, -0.0558 E-score.
ATGAGCTG: the binding signal came to 0.12 E-score.
Consider AGGAGACT, for which the binding signal is -0.157 E-score.
The figure for CTGCCCTC is -0.112 E-score; for ATGTGTGG it is -0.129 E-score.
For GTGATTGA, the binding signal was -0.0734 E-score.
Under ACTTGACA stands -0.000965 E-score.
Under CGACGGCG stands -0.115 E-score.
The figure for CTGAATTA is -0.00562 E-score; for ACGGACAT it is -0.0887 E-score; for AAGGAGCT it is -0.164 E-score.
In the case of CGCGTCAA, the binding signal was -0.108 E-score.
The figure for AGGACAGG is -0.158 E-score; for AGCTTTAA it is -0.217 E-score.
As to AGAGGCTA, the binding signal was -0.0599 E-score.
Under AAGTCGCT stands -0.254 E-score; under CCGGAGGC, -0.00421 E-score; under CGGATCAA, 0.417 E-score.
Consider TAGATCAA, for which the binding signal amounted to 0.261 E-score.
Take CTACCTAA: the binding signal was -0.0381 E-score.
As to ACATATAG, the binding signal was 0.162 E-score.
Under CAAAGTGA stands 0.0928 E-score; under CGCAATGA, 0.0681 E-score; under GTCACATA, 0.0546 E-score.
Consider ACGTTCCG, for which the binding signal is -0.244 E-score.
Consider AAAGAATC, for which the binding signal was -0.0968 E-score.
The figure for AGTCACGC is -0.104 E-score; for TAGCTCGA it is 0.145 E-score; for GCATGAGA it is 0.0735 E-score.
Regarding CAGAGGTC, the binding signal was -0.131 E-score.
Under CGTGAGTA stands 0.0936 E-score.
The figure for AGTTCTAC is -0.0789 E-score; for TCGCGCGA it is -0.0537 E-score.
The figure for AATCTTGA is -0.0535 E-score.
For the sequence GTCCCTAA, the binding signal was -0.0718 E-score.
For the sequence GGGAGGCA, the binding signal is -0.17 E-score.
The figure for ATATACCA is 0.326 E-score.
As for CGTTAACG, the binding signal is -0.0975 E-score.
Take AGCGACTG: the binding signal was -0.123 E-score.
Under CCCGAGAG stands -0.0225 E-score; under ATCTTGGA, 0.151 E-score.
As to GGGCGAGA, the binding signal came to 0.0683 E-score.
The figure for GTTATGTA is -0.0766 E-score; for ACATGATA it is 0.426 E-score; for CCGTGCCC it is -0.0658 E-score.
Under CATCGCAG stands 0.0261 E-score.
Under GCCCTTGA stands 0.0459 E-score.
With CACGACTG, the binding signal was -0.0846 E-score.
Consider AACCAGCA, for which the binding signal is -0.253 E-score.
The figure for TACGGTAA is 0.0132 E-score.
In the case of TACGGGAA, the binding signal was 0.0911 E-score.
Under AGAGTGGA stands 0.0399 E-score; under GGACTGAC, -0.258 E-score; under CGGTATTC, 0.319 E-score.
As to GTAAACTA, the binding signal is 0.0311 E-score.
Under ACTCGTCG stands -0.357 E-score; under CTTCATCC, 0.0553 E-score.
The figure for ATTCGTAC is 0.0477 E-score; for CGCCGGAA it is -0.00658 E-score.
Under CTGATAAA stands 0.0132 E-score.
As for AATTTAGT, the binding signal was -0.017 E-score.
Under CAGGCATA stands 0.136 E-score; under CAACCTCA, -0.214 E-score; under GATGGGGA, 0.191 E-score.
CGTACCCA: the binding signal was -0.0421 E-score.
The figure for AATATACC is 0.32 E-score; for CGCTGTCA it is -0.144 E-score.
Under CTTTTACA stands -0.328 E-score; under TCAACTCA, -0.136 E-score.
For the sequence AAGTAGCC, the binding signal is -0.12 E-score.
Under CAGTCACG stands -0.154 E-score; under GTTAAAAA, -0.292 E-score.
Under CAATGCGC stands -0.0377 E-score; under CTGCTGCA, -0.199 E-score; under AGCCAAAA, -0.0893 E-score.
As to AGTTGTGC, the binding signal was -0.141 E-score.
Regarding GGCGCTTA, the binding signal was -0.0815 E-score.
Take GGCATCTA: the binding signal is 0.132 E-score.
Take TACGCACA: the binding signal was -0.224 E-score.
Under AGTAACAC stands -0.0453 E-score; under TATACCGA, 0.339 E-score.
Under ATCAGAAA stands 0.112 E-score; under CATGGCAA, -0.309 E-score.
Under ACGAGTCC stands -0.17 E-score.
For the sequence AGGGCGGC, the binding signal is -0.172 E-score.
The figure for CCACCCTC is 0.0427 E-score; for AATACTAG it is 0.0971 E-score.
Under AGCCGATC stands 0.329 E-score.
Under AGAAAGGC stands -0.131 E-score; under GCTGCCCA, -0.161 E-score.
For the sequence ATTAGGTC, the binding signal stood at 0.0171 E-score.
Under AATGAAAC stands 0.134 E-score.
In the case of GAGGACAC, the binding signal amounted to 0.222 E-score.
On to ACTTTTTC, for which the binding signal is -0.261 E-score.
Under AAAGGTGG stands -0.148 E-score.
